Experimental findings from paper PMC10726135 are described below.

The other results are listed elsewhere or left out. At the low end of the ranking the order means little. The protein was read in a cell extract, so binding may be indirect.

In the experiment the target is T1, HNF4alpha2 (COS-7 nuclear extract) (UniProt P41235).
T1 sequence: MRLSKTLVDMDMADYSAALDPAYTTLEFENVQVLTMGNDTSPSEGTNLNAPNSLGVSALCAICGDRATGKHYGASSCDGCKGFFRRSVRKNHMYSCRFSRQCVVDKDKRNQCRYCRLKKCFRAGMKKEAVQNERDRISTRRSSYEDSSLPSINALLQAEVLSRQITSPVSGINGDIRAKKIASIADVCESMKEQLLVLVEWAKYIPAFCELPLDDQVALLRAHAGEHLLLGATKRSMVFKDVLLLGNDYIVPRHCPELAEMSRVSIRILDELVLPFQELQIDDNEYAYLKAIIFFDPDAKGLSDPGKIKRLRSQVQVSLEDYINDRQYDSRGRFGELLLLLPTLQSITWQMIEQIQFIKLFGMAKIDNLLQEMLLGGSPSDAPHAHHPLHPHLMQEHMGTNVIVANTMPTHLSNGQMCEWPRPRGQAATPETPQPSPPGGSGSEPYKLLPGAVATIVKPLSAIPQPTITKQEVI
As to the kind of experiment: protein-binding microarray. As to conditions: COS-7 nuclear extract on double-stranded Agilent 4x180k PBM; binding buffer, salt, pH and temperature not given; high values mean tight binding; double strand, one strand shown; sequences stand for … in …GCCTAGGGAGATTAGAGTATCGGTCGA
Turning to CCCGGCAGCCCTGCTCCCCGCCTTGGCCTC, the binding signal (log2 normalized intensity) turned out to be 1.56.
As to AGATTCTGCAAACCTATTAATATATTCATA, the binding signal (log2 normalized intensity) is -1.02.
Take TGTTTGACGACTGTCTGCCATGGGCCTGGC: the binding signal (log2 normalized intensity) was -0.728.
On to GGTAAAGGTGAAGGCTGACCACGGGGGCCG, for which the binding signal (log2 normalized intensity) was -1.02.
For the sequence CACCTTAGAGGGACGAAGGTCACTAATTGG, the binding signal (log2 normalized intensity) was determined as 3.09.
Regarding AAAGCGCAGCGCGGGGCTCAAAGGCGGCCC, the binding signal (log2 normalized intensity) was -1.11.
Take TACACAGACCCTCTTTTCTTTGTACCGTAT: the binding signal (log2 normalized intensity) stood at 2.32.
In the case of CTCTCTTTCTTCCCCCACTCCAAGTTCCTT, the binding signal (log2 normalized intensity) is 4.22.
Next, TTGGGTCACAATCACAAATGCCTTCAGGGG: 0.838; TCTGATGCCATGATAAGCAGTGTGGACTTT: 6.58.
For CAGTAAAAGCTCTACCTGACCTCCCAAAAT, the binding signal (log2 normalized intensity) stood at 2.04.
On to CACAGAACAAACAGTACATTCTGGAATGAT, for which the binding signal (log2 normalized intensity) was -0.801.
As to TCCGGAAACGTATGACTTTGGAGCACTCAT, the binding signal (log2 normalized intensity) was -0.261.
On to GCTGGTCAAAGGGCATTACTTGCTGGAGAA, for which the binding signal (log2 normalized intensity) is 3.16.
TTACAACGCTGTTGTCTGTGACTGGGGTCA: the binding signal (log2 normalized intensity) is 3.66.
Next, GAATACTGCTGGGTCAGTTTATCTAAGATT: 1.35; TCAAGGGAATCTGCTGTAATAAAGCCTTAT: -0.739.
With AAATAAGGATAAAGTAAGGTGAAGCCCAGC, the binding signal (log2 normalized intensity) is -1.25.
To GACAGGGGAGATAAGGCCCGGCTGATGGGA belongs -1.2; to TGTATTCCCTCTCTTCAGAATGGCCTGCCC, 1.63.
For CATGTCTAAAGGCTGTGTCGGTATAAGTTC, the binding signal (log2 normalized intensity) came out at 1.86.
With CTTTGTAGCACTTTGGACCTCCACTTTGGA, the binding signal (log2 normalized intensity) worked out at 3.1.
For CTGTACCAATTATTGCGAGTTTAGGAGGGT, the binding signal (log2 normalized intensity) worked out at 0.928.
As to CAGCAGGCCAGGCCAAATCAGAACTGAGTT, the binding signal (log2 normalized intensity) was -1.18.
As for CAAATGGAGAAGGTCTAAGTAAACTGTTCA, the binding signal (log2 normalized intensity) is -0.663.
In the case of TCTGGGCCTGGCAAGACTTCTTCAGGGAGA, the binding signal (log2 normalized intensity) was -0.955.
To CTTGCTTAGGATAGGGTCAGTCTTTGTTCT belongs 2.15.
For TCTGCCTTTTATCTATTTGTCGCCTCTGAC, the binding signal (log2 normalized intensity) stood at 0.141.
Next, TTTCCTGCCCCTTCACATATTTTGAAAGAA: 1.7; ACCTGGCCTGCGGGGTCAGGCCGTGGTGTA: 1.79; TGCACTTTACTCAGAAAGGTCAGCGCTTTG: 1.34.
In the case of GAGTTCTAAGAGCCTACTGAGAGGAAAGGG, the binding signal (log2 normalized intensity) is -1.21.
Consider AGCAAGTCAGATGGCCAAAGTCAACATTGA, for which the binding signal (log2 normalized intensity) came to 0.756.
GGTTCCCACAGCCCAACTCGGAGGACTGAG: the binding signal (log2 normalized intensity) is -1.12.
Turning to AGATGAGCCAGGCCAACACCAAGCAAGCTC, the binding signal (log2 normalized intensity) is -1.13.
Consider CGTAAATGCACGGAAGCCTTCCCCGCCCGC, for which the binding signal (log2 normalized intensity) turned out to be 2.83.
In the case of CAGGGACACATGCCCCTTCCCTCCCTGCAA, the binding signal (log2 normalized intensity) was found to be 3.45.
For the sequence AAACCTACTTAGATCAAGATTTTCAACTTG, the binding signal (log2 normalized intensity) is -1.14.
Turning to GTGAAGTGGTAGGACAGGGCCCTTCACTAT, the binding signal (log2 normalized intensity) is -0.979.
On to TTCTTTGGTACTTTGAGCCAGTAAGTCTAG, for which the binding signal (log2 normalized intensity) stood at 1.28.
CCACAAACAAACAGGGTGGCTTTGATCTGG: the binding signal (log2 normalized intensity) was -0.725.
In the case of TGAGCCGCCAGGCGGGTTCTGCCATCTCGC, the binding signal (log2 normalized intensity) was -1.09.
For the sequence ATCTCCAAACGAGACTTTGGACTTTGGACT, the binding signal (log2 normalized intensity) stood at 11.8.
TTGTGTCACCAATGGTAACTGAAAGTCATG: the binding signal (log2 normalized intensity) was determined as 0.392.
Take AGTGTCACAAACTATCAGTGAAGAGCAAAC: the binding signal (log2 normalized intensity) is -0.946.
Turning to ACCAGCCCACTCTTAGCAGAGATTCCTGCT, the binding signal (log2 normalized intensity) was -1.2.
CCATGACGCAAGCGAGTAAGGCCCGTGAGA: the binding signal (log2 normalized intensity) is -1.2.
Next, TCCTTTGGTGCAAATACCATCCCCAGAGCC: 1.9.
As for GGCCTGGTTCGGGATTATGGCCGGCCCCTG, the binding signal (log2 normalized intensity) was determined as 0.152.
Next, GGTGAAGCTTGGGCAGCACAGCCTCCCTGT: -0.982; TCACCTGGCTCTGAAAAACAAAATGCATTT: -0.853.
To CTCACCAGTGGGCCCAGAGCACAACCTTTG belongs 0.906; to CAAACTCATTTTGATCTTTGTGTACAAAGC, 1.34; to ACACCTGCGTGTACTAAGGTCTTAAGTGTC, 1.28.
As for CAGTACAAATAAACCTTTGACCAATTGACC, the binding signal (log2 normalized intensity) came out at 3.49.
On to AGATAAGAGCCACCCTCAAATCAGTGAAGG, for which the binding signal (log2 normalized intensity) was -1.15.
With AGTTTGACCTGGAGCCAGGGCCTTTTCAAG, the binding signal (log2 normalized intensity) is -0.917.
Next, ACTCATGGGCAAGATGGCTCTCCCGGGGCG: -0.935; CAAAGGATGGAAGCTCTGAAAGCTTCAAAG: -1.13.
Next, GCTGAGAGAGTCCTTGTTTGGTTAGTGCTG: 0.966.
For the sequence AATGAGGCGACATCAAAGCATTTGGAGATT, the binding signal (log2 normalized intensity) was -1.29.
In the case of GTATCTTGTCTGACTGTGATACCAGGGGTC, the binding signal (log2 normalized intensity) is 3.23.
TCATTGCACAGTTACTCCACAACTTGTTCT: the binding signal (log2 normalized intensity) stood at 0.726.
As for TGCTTAAGTGGCTCACCCAAGTCACACAGT, the binding signal (log2 normalized intensity) is -1.01.
Turning to TAATATCTAAGATGTAGCTGCAAAGATAAG, the binding signal (log2 normalized intensity) was -0.995.
On to ATTGGCTGTTTAGTAGAGAGCAGGTACCAC, for which the binding signal (log2 normalized intensity) is 0.238.
In the case of CAGCAGAGAGTTTTCCTTGGCTGTGCTGCC, the binding signal (log2 normalized intensity) is -1.1.
With TATGCAAATGTTATGGCTGGTTTGGTCTTT, the binding signal (log2 normalized intensity) amounted to 2.53.
For ACCGCCTACCTTTGGACTTCTCATTACATG, the binding signal (log2 normalized intensity) stood at 2.58.
To GCGCCAATACCTGCCGCGCGGGGCGCCTCC belongs -0.951.
Take GGTTAGAATCCTTATCTGGTGTGCTTTCTG: the binding signal (log2 normalized intensity) was found to be 1.49.
To TCCGAGATAAGGCGTCTTATCAGCCCCCAT belongs 4.08; to AGAAGCACGTGCAAAGTACAAAGTACAGAG, 4.11.
